In all, about 33,000 sequences were measured (“E-score (-0.5 to 0.5)”: median about -0.04, highest 2% from about 0.36 on). The list shows a part of the results.
Molecular target: T1, Hmlalpha2 (UniProt P0CY09)
T1 sequence: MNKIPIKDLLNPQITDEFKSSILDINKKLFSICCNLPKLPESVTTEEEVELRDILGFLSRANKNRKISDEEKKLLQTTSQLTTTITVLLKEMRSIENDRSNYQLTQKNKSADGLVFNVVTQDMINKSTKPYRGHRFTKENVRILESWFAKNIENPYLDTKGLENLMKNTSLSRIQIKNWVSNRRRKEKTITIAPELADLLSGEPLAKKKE
Experiment: PBM E-score (8-mer binding enrichment) (E-score (-0.5 to 0.5)); higher = stronger / more preferred TF binding; most listed sequences are background and not binding sites
Settings: protein concentration: 200 nM; construct: GST-full length
Procedure, shortened: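 E-scores (a modified Wilcoxon-Mann-Whitney statistic) were assigned by the Universal PBM Analysis Suite to every ungapped eight-base word pooled with its reverse complement. The input came from universal all-10-mer Agilent arrays made double-stranded by primer extension and probed with GST-tagged yeast transcription factors at about 100-200 nM. Fluorescent anti-GST detected bound protein, and masliner normalised the scans.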

Row | Sequence | PBM E-score
1 | TAAGTCAA | 0.0906
2 | AAGCAAGA | -0.0444
3 | ACCATTGA | 0.0496
4 | TCGACCGA | -0.0492
5 | GCCTACGA | -0.0741
6 | ACCACGCC | -0.2
7 | GTATCGTA | 0.137
8 | CAACACGA | 0.419
9 | CGAATAAG | -0.28
10 | CAAGTCCA | -0.226
11 | AACGCAAG | 0.154
12 | CGGCCCGA | -0.212
13 | CAACCCCC | -0.119
14 | CAACGGGA | -0.118
15 | ACCGCTTG | -0.0491
16 | AGATTTCC | -0.111
17 | ACGTTCTA | 0.135
18 | AAGGCAAA | 0.00184
19 | CGACATCC | -0.0883
20 | GCCGACTA | 0.0147
21 | CTGGTCTA | -0.217
22 | AGTAGAAT | 0.165
23 | TCGCGAAA | -0.0803
24 | TACGAGAA | 0.0859
25 | CCGCATCG | -0.263

Row | Sequence | PBM E-score
26 | GCTTTTAA | -0.0275
27 | CTAAAATC | -0.0305
28 | TGAAATAA | 0.192
29 | CGCGTGAC | 0.182
30 | AACAGGAG | 0.00534
31 | GTGGTACA | 0.174
32 | GCCTCCAA | -0.111
33 | AGACGAGC | -0.124
34 | GCCGGAGA | -0.187
35 | CTGCGCTA | -0.238
36 | CCATGACG | -0.105
37 | GAATACCC | -0.19
38 | CTTTATAC | 0.127
39 | CGCCAGAC | 0.0655
40 | ACAAGTAA | 0.237
41 | CAGACTCC | -0.269
42 | ACTAATCT | -0.0687
43 | CATCCGCC | -0.253
44 | AGGCTGGA | -0.184
45 | ACACGATC | 0.426
46 | ATGATTCA | -0.00775
47 | CCGTCATC | -0.185
48 | AAGTTCGT | -0.0782
49 | GAGCTGCA | -0.253
50 | AGATTAGA | 0.0648

Row | Sequence | PBM E-score
51 | CGCGCCCC | -0.278
52 | ATGACCTA | 0.049
53 | CTATGATC | -0.0399
54 | ATAACTAG | -0.0217
55 | GACGCACA | 0.00701
56 | ACCCTGAG | -0.0283
57 | ACCGGCTC | -0.166
58 | ACACCTCA | -0.0541
59 | ACTCTCGG | -0.0903
60 | TCCGAAAA | -0.213
61 | GAATCGGC | -0.18
62 | GATGGACA | -0.0833
63 | CACCCATA | -0.297
64 | CAAAGACC | 0.017
65 | GTTCAAAA | 0.175
66 | CCAGGTTA | 0.0279
67 | GTGAGAGA | 0.0289
68 | ACGTGACC | -0.0125
69 | ACGCAGCA | 0.2
70 | GATAAGCA | 0.168
71 | AGGCACAC | -0.173
72 | CATCTGAG | -0.137
73 | AGGGGTGC | -0.147
74 | CGATACTA | 0.105
75 | ATGATTGC | 0.0313

Row | Sequence | PBM E-score
76 | AGCTTCGG | -0.265
77 | TGATGGCA | -0.185
78 | CACTATCG | -0.153
79 | CCATTAAA | -0.0126
80 | CGTTTATA | 0.148
81 | AGAAGATA | 0.14
82 | CTCCGCAA | -0.0446
83 | CACTGGCC | -0.196
84 | CCTCGAGG | -0.104
85 | CTTCCGGC | -0.0919
86 | GCGGACAA | -0.00678
87 | AGTATGCA | -0.0681
88 | AAGAGTTG | -0.0202
89 | CACTCGAA | 0.0674
90 | AGAGGGAT | -0.24
91 | AGTAGTGA | -0.0576
92 | CTCTACCA | -0.129
93 | GGCTATCA | -0.0448
94 | AGGGAGGG | -0.361
95 | CTCGCCAG | -0.231
96 | GTCCGGAC | -0.00671
97 | CACCCGGC | -0.221
98 | ACCAATCG | -0.00689
99 | ACCTCAGG | -0.273
100 | ACTCGCTG | -0.0125

Row | Sequence | PBM E-score
101 | GTTCCAAC | 0.0866
102 | AGAATGAC | -0.0198
103 | CAGAGGCG | -0.0889
104 | CAGTCTTC | -0.119
105 | AAGTGAAT | 0.0965
106 | TAGTTACA | 0.32
107 | AGCTCGAG | -0.00073
108 | AACTAGAC | 0.109
109 | CGTATACG | 0.194
110 | ATCAGGCC | -0.252
111 | GAATTTCC | -0.0192
112 | GTCATATA | 0.228
113 | GAGCGCAC | -0.329
114 | AATCAGAT | 0.0318
115 | AAGTCGGA | -0.0616
116 | GAAGGAAC | -0.134
117 | TGCCGCCA | -0.142
118 | CTCTCGAA | -0.0478
119 | GTGAACTA | 0.103
120 | CGGAAGAG | -0.303
121 | GGATATGA | -0.0552
122 | AAAAATAC | 0.027
123 | ACAAACTC | 0.161
124 | ACCTACGG | -0.294
125 | GAAAGTGC | -0.26

Row | Sequence | PBM E-score
126 | GAGCGACA | 0.16
127 | CTTTAAGA | -0.0198
128 | GCTGAGCA | 0.00749
129 | GCCCGCCC | -0.326
130 | GTTAACCA | 0.285
131 | CACAGTAA | 0.194
132 | GTGCAAGA | 0.0959
133 | ACTCACAT | 0.0984
134 | ATTATTCC | 0.027
135 | ACCGTTCA | -0.0934
136 | ATGGGTGG | -0.201
137 | ACGCAGAC | 0.135
138 | ATGTGACG | 0.0865
139 | CGAAGGTA | 0.0263
140 | GCACAGAC | 0.102
141 | GTAGCTGA | -0.0322
142 | ACATTTGG | -0.0401
143 | ATAAAGGA | -0.121
144 | AAAAGAAC | 0.203
145 | CTCGATAA | 0.055
146 | CCCCGTCG | -0.269
147 | AGACACAT | 0.128
148 | CGGTATGC | -0.169
149 | CAGTATGA | 0.0334
150 | CACCACGA | 0.0167

Row | Sequence | PBM E-score
151 | AGACACAG | 0.114
152 | ACGGCATG | 0.0837
153 | AAAATAAT | 0.222
154 | AGTCCGGA | 0.0377
155 | AGTAGCGA | -0.0382
156 | GACCTGTA | -0.0109
157 | CCAATAAA | 0.0648
158 | CTGGTTGA | -0.0845
159 | GGAAGCTA | -0.236
160 | CCAACCGC | -0.16
161 | AAATCCCA | -0.0743
162 | GGTGGCTA | -0.22
163 | TCCGCCCA | -0.298
164 | TAGGTATA | 0.0844
165 | AAATATGC | -0.0417
166 | CCGTATTA | 0.1
167 | GAATGGAC | 0.0224
168 | TTCTACAA | 0.314
169 | GTTGCAGA | -0.0831
170 | TCCCTTAA | 0.0622
171 | AAGATTAT | -0.211
172 | TAATACAA | 0.375

Source: the supplement of paper PMC3334620
